Data: PubChem BioAssay AID360 (National Center for Advancing Translational Sciences (NCATS), 2006)
Hit rate of the full screen: of about 48,000 compounds, about 550 (1.1%) were called active. Roughly 4% stayed inconclusive and do not appear here. No stated cut-off is given here; in the data, active means potency below about 15 µM; inconclusive means mostly about 16 µM to 33 µM; inactive means weaker than that. The list shows a part of the results.

target: Lysosomal acid glucosylceramidase (Homo sapiens) (UniProt P04062); experiment: Glucocerebrosidase; settings: purified enzyme, resorufin glucoside fluorescence (screen aimed at inhibitors), 20 min;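 further: the screen sought inhibitors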
UniProt P04062, sequence (P04062 whole entry, looked up): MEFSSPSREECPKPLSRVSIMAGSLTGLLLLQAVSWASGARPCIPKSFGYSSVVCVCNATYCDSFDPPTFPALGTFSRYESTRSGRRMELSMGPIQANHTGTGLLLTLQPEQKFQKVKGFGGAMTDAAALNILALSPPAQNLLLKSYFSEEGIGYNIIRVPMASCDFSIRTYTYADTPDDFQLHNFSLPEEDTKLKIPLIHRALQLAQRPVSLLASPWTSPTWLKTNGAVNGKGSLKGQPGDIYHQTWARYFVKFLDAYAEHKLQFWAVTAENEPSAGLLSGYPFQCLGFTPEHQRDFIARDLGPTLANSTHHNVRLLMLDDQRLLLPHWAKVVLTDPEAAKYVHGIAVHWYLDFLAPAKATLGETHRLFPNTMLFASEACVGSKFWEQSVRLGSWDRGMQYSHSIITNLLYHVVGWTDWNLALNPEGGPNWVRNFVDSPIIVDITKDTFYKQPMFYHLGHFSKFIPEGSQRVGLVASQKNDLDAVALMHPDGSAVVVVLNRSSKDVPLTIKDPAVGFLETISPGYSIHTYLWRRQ
Method in brief: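 Compounds titrated against 0.2 nM normal enzyme, 30 uM resorufin beta-D-glucopyranoside substrate, citrate/phosphate buffer with taurocholate and tween-20, pH 5.9. Reaction ran 20 min at room temperature; fluorescence (Ex 548/Em 600) gave AC50.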
Potency means the concentration at half of the fitted maximal effect.

Potency, active:
COC(=O)c1ccc(CSc2nc3c(c(=O)n2-c2ccc(Br)cc2)SCC3)o1 4.94 µM

Potency, inactive:
CC(=O)C1C(c2ccncc2)NC(=O)NC1(O)C(F)(F)F (stereo unspecified) > 76.9 µM, COc1ccc(Br)cc1CNCCSc1nnnn1C > 76.9 µM, O=C(NCc1cccs1)c1ccc2c(c1)OCCO2 > 76.9 µM, N#Cc1nc(COc2ccccc2F)oc1N1CCCCCC1 > 76.9 µM, COc1ccc(C(=O)N2CCN(C(=O)c3ccco3)CC2)cc1OC > 76.9 µM, CCOC(=O)N1CCN(C(=O)CSCC(=O)Nc2nc(-c3cccs3)cs2)CC1 > 76.9 µM, COc1ccccc1N1CCN(C(=O)c2c(-c3ccccc3Cl)noc2C)CC1 > 76.9 µM, O=C(CSc1nc(Nc2ccccc2)nc(N2CCOCC2)n1)Nc1ccc2c(c1)OCCO2 > 76.9 µM, O=C(O)c1cc2n(n1)C(C(F)(F)F)CC(c1ccco1)N2 (stereo unspecified) > 76.9 µM, C=CCn1c(SCC(=O)NCc2ccco2)nnc1-c1ccc2ccccc2n1 > 76.9 µM, CC1CCN(CCCNC(=O)Cc2c(C(=O)O)n(C)c3ccccc23)CC1 > 76.9 µM, COc1ccc(C(c2nnnn2Cc2ccccc2)N2CCN(C(=O)c3ccco3)CC2)cc1 (stereo unspecified) > 76.9 µM, O=C(Nn1c(C2CC2)nc2ccccc2c1=O)c1ccco1 > 76.9 µM, COc1cccc(OC)c1C(=O)Nc1ccc(NC(=O)c2ccco2)cc1 > 76.9 µM, Cc1cc(N2CCN(C(=O)OC(C)(C)C)CC2)n2ncnc2n1 > 76.9 µM, COC(=O)COc1cccc(-n2cnnn2)c1 > 76.9 µM, CCN(CC(=O)NC1CCCC1)S(=O)(=O)c1ccc(C)cc1 > 76.9 µM, O=C(CCn1nc(-c2ccccc2)c2ccccc2c1=O)NCC1CCCO1 (stereo unspecified) > 76.9 µM, O=C(Nc1ccc(Br)c(Cl)c1)c1ccco1 > 76.9 µM, Cc1ccc(N(CC(=O)N2CC(=O)Nc3ccccc32)S(=O)(=O)c2ccc3c(c2)OCCO3)cc1, CSc1cccc(NC(=O)COc2ccccc2)c1 > 76.9 µM, Cc1cc(C)nc(SCCn2c(N3CCCCC3)nc3c2c(=O)n(C)c(=O)n3C)n1 > 76.9 µM, CC12/C(=N/O)C3C4CC5C3/C(=N/O)C1C5C42 (stereo unspecified) > 76.9 µM, COc1ccc(OCCOC(=O)c2cccs2)cc1 > 76.9 µM, NC(=O)C1(N2CCCCC2)CCN(C2CC(=O)N(Cc3cccs3)C2=O)CC1 (stereo unspecified) > 76.9 µM
